Data from a compilation of properties of binary mixtures (doi:10.1016/j.jiec.2013.02.010).
The densities may have been worked out from excess volumes.

Assay: xn = mol fraction of the nth substance listed
Details: 298.15 K, 101 kPa

For CO + CCCC[n+]1ccn(C)c1.[Cl-], the mass density (x1 = 1) was 785.1 kg/m3.

In the case of CC#N + CCCC[n+]1ccn(C)c1.[Cl-], the mass density (x1 = 1) is reported as 776.7 kg/m3.

CCCC[n+]1ccn(C)c1.[Cl-] + O gave a mass density (x2 = 0.4982) of 1082.8 kg/m3, a mass density (x2 = 0.5535) of 1082 kg/m3 and a mass density (x2 = 0.8999) of 1049.3 kg/m3. It also gave a mass density (x2 = 0.9502) of 1028.9 kg/m3 and a mass density (x2 = 0.975) of 1014.6 kg/m3.

For CCCC[n+]1ccn(C)c1.[Cl-] + CCO, the mass density (x2 = 0.4991) was 1009.4 kg/m3, the mass density (x2 = 0.5533) was 996.6 kg/m3 and the mass density (x2 = 0.6011) was 983.5 kg/m3. It also gave a mass density (x2 = 0.9) of 861.5 kg/m3, a mass density (x2 = 0.9501) of 827.5 kg/m3 and a mass density (x2 = 0.975) of 808.2 kg/m3.

With CCCC[n+]1ccn(C)c1.[Cl-] + CN(C)C=O the mass density (x2 = 0.501) was 1045.6 kg/m3, the mass density (x2 = 0.6134) was 1032.4 kg/m3 and the mass density (x2 = 0.6994) was 1020.4 kg/m3. The mass density (x2 = 0.8017) was 1001.6 kg/m3, the mass density (x2 = 0.9) was 978 kg/m3 and the mass density (x2 = 0.9502) was 963.1 kg/m3.

For CCCC[n+]1ccn(C)c1.[Cl-] + CO, the mass density (x2 = 0.5213) was 1026.7 kg/m3, the mass density (x2 = 0.5458) was 1021.6 kg/m3 and the mass density (x2 = 0.5925) was 1012.5 kg/m3. It also gave a mass density (x2 = 0.7996) of 947.8 kg/m3, a mass density (x2 = 0.9007) of 889.3 kg/m3 and a mass density (x2 = 0.95) of 846.9 kg/m3. It also gave a mass density (x2 = 0.975) of 819.2 kg/m3.

In the case of CCCC[n+]1ccn(C)c1.[Cl-] + CC#N, the mass density (x2 = 0.502) is reported as 1021.2 kg/m3, the mass density (x2 = 0.5483) is reported as 1011.6 kg/m3 and the mass density (x2 = 0.6038) is reported as 998.1 kg/m3. For the same compound, the mass density (x2 = 0.7021) was 968.2 kg/m3, the mass density (x2 = 0.9002) was 869.7 kg/m3 and the mass density (x2 = 0.9499) was 829.1 kg/m3. It also gave a mass density (x2 = 0.975) of 804.9 kg/m3.

CCO + CCCC[n+]1ccn(C)c1.[Cl-] showed a mass density (x1 = 1) of 786.7 kg/m3.
